# Assay results as given in the supplement of paper PMC11417369.
# ± gives the standard deviation of the averaged measurements. This is one part of the list.
# System: PfAP2-LT AP2 domain (GST-tagged)
# Test: gcPBM binding intensity (ln(normalized median fluorescence intensity)); higher = stronger DNA binding
# In short: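 In this array assay, P. falciparum DNA-binding domains with a GST tag, expressed in E. coli, were applied for 1 h to primer-extended double-stranded 36-bp intergenic genomic probes and negative controls on an Agilent 4 × 180k array. Bound protein was visualised with Alexa488 anti-GST antibody at 488 nm. Binding intensity is the highest Masliner-normalised natural-log median intensity across replicate spots of either probe orientation.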
row,Sequence,gcPBM binding intensity (ln)
1,CATATCCTTACGAACTGTACAATATTAAGAATAAAA [XGTACX_site1651],8.61 ± 0.45
2,GTAAAAAGATAATGAAGTACATTTTTTCATTTTTAT [XGTACX_site5579],8.54 ± 0.49
3,AAAAAAAAAAAACACACACACACACCCATATACATA [CACACA_site2664],10.31 ± 0.085
4,CTAGACTTTATTAATTGTACATATGTGTATTTTATA [XGTACX_site480],8.86 ± 0.33
5,GTCTATAACTATTGCGCACACTTTAAAAAAAAAGAA [CACACA_site1003],8.91 ± 0.38
6,TATATATATATATAATGTACATAATAATAATACATC [XGTACX_site5587],9.02 ± 0.38
7,TAGAAGCATTGACACACACACATACATACACATACA [CACACA_site6802],9.92 ± 0.14
8,TTTTCCTTTACATAATGTACACAAAAAAAAAAAAAA [XGTACX_site716],8.21 ± 0.35
9,GTTACTGCATACATAACACACATATTCAAAACCCAT [CACACA_site5856],9.16 ± 0.33
10,AATACAGACAGACACACACACAAAATAAAATACAAA [CACACA_site245],9.95 ± 0.38
11,TCTTTTTTTTGAATTTGTACATAAGACAATAAAAAA [XGTACX_site4682],8 ± 0.4
12,CATCATAGAGTGGAGTGTACAAATATGTCAACATAT [XGTACX_site2264],9.1 ± 0.48
13,TATAAAAATGTGTATGTACACACTTTATTTTTAATA [CACACA_site2532],9.18 ± 0.28
14,TGTCCAATTTTTTATCGTACATAATATATAAATAAA [XGTACX_site1705],8.45 ± 0.39
15,AAATATAAAAATAGCACACATATATACATATATATA [CACACA_site56],8.92 ± 0.4
16,AGTATTTCCATATGTACATGCAAAAGGAAAGATATA [TGCATGCA_site850],8.73 ± 0.42
17,TATTTTTCCCTATGCACACACACCGTATATATAATA [CACACA_site4758],9.55 ± 0.29
18,AGAAACGTAAGTTATACACACATGTCAAAAGAAAAA [CACACA_site312],9.17 ± 0.49
19,GAGCTTTGGATGAAAGCATGCGATGAATGGATAAAA [TGCATGCA_site786],8.81 ± 0.39
20,AAATTAAAATATATATGTACATATATATATATATAT [XGTACX_site7844],9.45 ± 0.35
21,ATAAAAATAAATAAATGTACATATATATATATATAT [XGTACX_site1277],9.62 ± 0.2
22,TAAATTAAAAAAAAAAACAAAAAAAAAGCAACAAAA [CACACA_negctrl_site1318],8.55 ± 0.61
23,TAAATAGGAAAACCTATACACACTTTAAAAAAAATA [CACACA_site1621],8.65 ± 0.54

row,Sequence,gcPBM binding intensity (ln)
1,AACACAAATAAGTATTTGGATTATATTACATTTATA [CACACA_negctrl_site465],8.6 ± 0.51
2,CTGTAAAATGTGATGGTGCATATTAATTTAGTTGTA,8.75 ± 0.35
3,ATTTATTTCAATAAACTTCTTTTCTTTAACAATTAC [CACACA_negctrl_site1222],8.38 ± 0.5
4,TTTGAATTTTTTAACACACACATGTCTGGATATATA [CACACA_site1645],9.35 ± 0.45
5,TTTTCCTTAACACACGTTTATATAAAAAATTAAAAT [XGTACX_negctrl_site115],8.45 ± 0.36
6,GAAAAAAAAAAAAAAAGTACATGTCATAAATTGTAT [XGTACX_site1461],8.74 ± 0.57
7,CAATGTTAATATAATACACACAATATGTATTTGTCT [CACACA_site1162],9.09 ± 0.49
8,ATCCATCTTTTATATAGTACTTTATAATATATATAT [XGTACX_site8064],8.86 ± 0.39
9,TTGTTAATATATATATGTACTTATTTATTTATTTAT [XGTACX_site2274],8.75 ± 0.54
10,TTATAGTATTTATAATGTACAAATATATTTTATTTT [XGTACX_site5015],8.56 ± 0.48
11,TCAAATAGAAAATAAAGTACTTAATTTTTAGGAACA [XGTACX_site1446],8.6 ± 0.61
12,ATATATATATTTATAGTGCATTTATATTAAAATATC [GTGCAC_site9818],8.61 ± 0.45
13,TTGAATATTTAAAAACGTACATAAAATTATTTGATT [XGTACX_site5422],8.45 ± 0.53
14,ATATTTATATTTTTTTGTACATATATAATTTTATAA [XGTACX_site4151],8.59 ± 0.38
15,ATATATATTTATATATGTACATATTAATATATATAT [XGTACX_site1144],8.68 ± 0.39
16,CCATTTATTATTTGGGGTACATTTAATTAATATTTT [XGTACX_site5940],8.78 ± 0.41
17,CTTTATTATAAGATTACACACATGTGTTATAATTTA [CACACA_site3169],8.96 ± 0.45
18,TTGACCTTAAGAAGGTTGCACTAATCATTCAAAGTT,8.47 ± 0.48
19,TGAAAATTTTAATGAGGAAATAAAATAAATATAATA [GTGCAC_negctrl_site159],8.42 ± 0.57
20,ATAGGCACTTTTTGCACACGTATGAATAACAAAATA [CACACA_site5069],9.21 ± 0.42
21,CCAAAGGGGGTATACTGTACATATAGTGGTTATATA [XGTACX_site1515],9.085 ± 0.035
22,ATTTAAGGGGTGTATGCACACGACTATTCCGTATGA [CACACA_site4738],9.01 ± 0.41
23,AATATTTTAAGGCACACACACAAAAAAAAAAAAAAA [CACACA_site2890],9.3 ± 0.63

row,Sequence,gcPBM binding intensity (ln)
1,TAATTTAGTATCTTTACATGCGGGCATTATGTCATA [TGCATGCA_site167],8.74 ± 0.4
2,ACTTGTTTTCAATGTAAAATACAATTTTCATTTATT [CACACA_negctrl_site435],8.66 ± 0.52
3,CCAAAGAAATATAATACACACAAGAATATATTGGAT [CACACA_site6018],9.2 ± 0.41
4,AATGAAAAATGTATCGTTAAAGGGTATCTTAAGGAT [XGTACX_negctrl_site222],8.79 ± 0.39
5,AAGTATTACAACCACACACACACCTATATATTATAT [CACACA_site4158],9.89 ± 0.34
6,AATTTAATATAATGCACACATAAAAAAAAAAAAAAA [CACACA_site123],8.9 ± 0.44
7,AAAAAAAAAAGACACACACACAAATACAAATACATA [CACACA_site6334],10 ± 0.28
8,TTTTAAACAAAAAATTGTACAATTAGTGTATAATCC [XGTACX_site778],8.61 ± 0.45
9,AAAGGAAATTAAAATTGATTACATATATAAAAAAAC [XGTACX_negctrl_site196],8.62 ± 0.45
10,AAATTCACAATGTTTGGTACACATAAAAAAAAAAGA [XGTACX_site7109],8.73 ± 0.42
11,TATTATTATTTTATGGTGCAAAAAAAAAAAAAAAAA,8.16 ± 0.52
12,AAAAATTTTTTTTTTTTTTTAAATAATAAAAATGAA [CACACA_negctrl_site1435],7.8 ± 0.44
13,TTTATATATTTTGTCGTGCACATTTGGAAAATTACA [GTGCAC_site9776],8.69 ± 0.47
14,AACATACGACAATACGCACACATATCTGTACATATT [CACACA_site5115],9.49 ± 0.23
15,CATTATTATTAACATACACACGTGTTATATACCCCC [CACACA_site9365],9.49 ± 0.13
16,TATATATTTATTTATAGTACACTATTTATGAAAACC [XGTACX_site3062],8.51 ± 0.47
17,TAACATAAATTTAGGAGTACACTTTTTATACATACA [XGTACX_site4066],8.55 ± 0.42
18,TTTATATTTATTGTTGTGCACAGAACCATATTCGTT,8.94 ± 0.49
19,TATCACTATAGACAAGCATGCATATGTACTAATATC [TGCATGCA_site1020],9.02 ± 0.3
20,AATAAAATGGAATACGGTACACATAATCCTAAAATG [XGTACX_site926],8.99 ± 0.46
21,ATATTATAAAATAAAAGTACACAATTATATATATAT [XGTACX_site8812],8.91 ± 0.26
22,TATTTTTAAAATTAAATGAATAAATAAATAAATATA [XGTACX_negctrl_site553],8.08 ± 0.58
23,ATATATATCGGACACACACACATGTTTTAAAACTAT [CACACA_site4218],9.59 ± 0.44

row,Sequence,gcPBM binding intensity (ln)
1,CTTTTATTCAAAAGATGTACTTAAATATATATCTAA [XGTACX_site4326],8.09 ± 0.38
2,ATGTGTATAATTAAATGTACATATATATATATATAT [XGTACX_site829],9.77 ± 0.35
3,TGCAGTCTGGAGAAACGTACACAGTATCTGGTAACA [XGTACX_site2014],8.84 ± 0.37
4,ATTTGAAATTGGTAGACACACAATAAAATATCAAAA [CACACA_site447],8.74 ± 0.49
5,CATATAAATATTTGTGCACACAATTATTAATAATTA [CACACA_site3884],8.99 ± 0.4
6,AAAAAGTTATTATGAACACACATTTATTATAGTCAT [CACACA_site6838],8.81 ± 0.37
7,TTAAACTTGAGACACACACACACACGGATATAAAAA [CACACA_site6495],9.96 ± 0.19
8,ATACTCACGTGACACACACACAATATAAATAAATAT [CACACA_site7862],9.69 ± 0.47
9,TGTATATATATCTCAGTGCATTGCAAATTAAAAATT [GTGCAC_site9646],8.75 ± 0.38
10,GGCTTTTTTTAATATGCACACATATATTTTATATAT [CACACA_site8647],9.12 ± 0.32
11,TATAATAATCTAATCTGTAGTTTTTTTTTTTTTTTT [CACACA_negctrl_site1206],8.31 ± 0.43
12,AAAAAAAAACAGAAAACACACAAATTATCTTATAAT [CACACA_site4326],8.89 ± 0.47
13,TTTCTAAATAATTATAATGAATCTGCAAACAAGCAT [XGTACX_negctrl_site391],8.16 ± 0.41
14,CTTGAAAAAATAAAAACACACAATGTGTTTTTGAAT [CACACA_site3283],8.7 ± 0.42
15,ATAAAAATAAACATACGTACTTACACGAATATACAT [XGTACX_site5989],9 ± 0.47
16,TTAGATTTAAATATCATACACACTTTATATATAATA [CACACA_site959],8.57 ± 0.38
17,ATATTACTATATTATTGTACGTTAAAAAAAAAAAAT [XGTACX_site8734],8.53 ± 0.35
18,AATAAATAAATAAATAAATATATATATATATATATA [GTGCAC_negctrl_site224],9.29 ± 0.28
19,TTATATTAAAAAAGATGTACGTTTAGGAAAAATATA [XGTACX_site7456],8.37 ± 0.41
20,GTTTTTAGTATTTTTTGTACTTAATACATAGCCTTA [XGTACX_site7318],8.67 ± 0.45
